Biological target: human FGFR3 IIIb on FDCP-1 cells (FDCP-FGFR3 IIIb #122) (human), P22607
Assay: cell-based or functional assay

human FGFR3 IIIb on FDCP-1 cells (FDCP-FGFR3 IIIb #122) (human), P22607, sequence (P22607 23-806): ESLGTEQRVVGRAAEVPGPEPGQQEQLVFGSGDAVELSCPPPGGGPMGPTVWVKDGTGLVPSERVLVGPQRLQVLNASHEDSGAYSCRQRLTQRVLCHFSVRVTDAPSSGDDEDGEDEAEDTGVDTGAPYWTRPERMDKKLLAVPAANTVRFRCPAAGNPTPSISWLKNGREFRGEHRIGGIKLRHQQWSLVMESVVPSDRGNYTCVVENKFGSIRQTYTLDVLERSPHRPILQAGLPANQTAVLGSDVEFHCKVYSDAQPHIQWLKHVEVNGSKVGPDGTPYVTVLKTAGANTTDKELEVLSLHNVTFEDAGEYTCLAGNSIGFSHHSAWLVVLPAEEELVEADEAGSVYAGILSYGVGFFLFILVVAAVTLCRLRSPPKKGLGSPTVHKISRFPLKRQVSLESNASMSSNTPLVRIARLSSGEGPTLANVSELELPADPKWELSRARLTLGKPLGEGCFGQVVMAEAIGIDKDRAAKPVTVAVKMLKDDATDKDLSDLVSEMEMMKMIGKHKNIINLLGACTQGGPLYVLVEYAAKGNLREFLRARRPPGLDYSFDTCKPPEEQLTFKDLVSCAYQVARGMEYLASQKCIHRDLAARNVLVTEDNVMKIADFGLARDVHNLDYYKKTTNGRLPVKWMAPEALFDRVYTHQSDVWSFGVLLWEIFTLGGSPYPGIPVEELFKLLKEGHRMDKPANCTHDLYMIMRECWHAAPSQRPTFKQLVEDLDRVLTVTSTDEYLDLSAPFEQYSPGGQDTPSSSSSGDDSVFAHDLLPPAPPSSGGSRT

Binder | FDCP FGFR3 IIIb Proliferation IC50, Average IC50 [nM]
Chimeric 15D8 (antibody, human IgG1, kappa) heavy: EIQLQQSGPELVKPGASVKVSCKASGYAFTSYNMYWVKQSHGKSLEWIGYIDPYNGGTSYNQKFKGKATLTVDKSSSTAYMHLNSLTSEDSAVYYCAREGGNYEAWFAYWGQGTLVTVSAASTKGPSVFPLAPSSKSTSGGTAALGCLVKDYFPEPVTVSWNSGALTSGVHTFPAVLQSSGLYSLSSVVTVPSSSLGTQTYICNVNHKPSNTKVDKRV[letters of human IgG1 Fc omitted] light: QIVLTQSPALMSASPGEKVTMTCSASSSVSYMYWYQQKPRSSPKPWIYLTSYLASGVPARFSGSGSGTSYSLTISSMEAEDAATYYCQQWSSYPLTFGAGTKLELKRTVAAPSVFIFPPSDEQLKSGTASVVCLLNNFYPREAKVQWKVDNALQSGNSQESVTEQDSKDSTYSLSSTLTLSKADYEKHKVYACEVTHQGLSSPVTKSFNRGEC | 1.47
Humanized 15D8 (antibody, human IgG1, kappa) heavy: EVQLVQSGAEVKKPGESLKISCKGSGYSFTSYNMYWVRQMPGKGLEWMGYIDPYNGGTSYNQKFKGKATLTVDKSISTAYLQWSSLKASDTAMYYCAREGGNYEAWFAYWGQGTLVTVSSASTKGPSVFPLAPSSKSTSGGTAALGCLVKDYFPEPVTVSWNSGALTSGVHTFPAVLQSSGLYSLSSVVTVPSSSLGTQTYICNVNHKPSNTKVDKRV[letters of human IgG1 Fc omitted] light: DIQLTQSPSSLSASVGDRVTITCSASSSVSYMYWFQQKPGKAPKPLIYLTSYLASGVPSRFSGSGSGTDFTLTISSLQPEDFATYYCQQWSSYPLTFGGGTKVEIKRTVAAPSVFIFPPSDEQLKSGTASVVCLLNNFYPREAKVQWKVDNALQSGNSQESVTEQDSKDSTYSLSSTLTLSKADYEKHKVYACEVTHQGLSSPVTKSFNRGEC | 3.73
